Test results from the supplement of paper PMC3334620.
Over roughly 33,000 sequences, “E-score (-0.5 to 0.5)” has its median near -0.041; the highest 2% begin near 0.37. Some of the results follow.

Target: T1, Ecm22 (UniProt Q05958)
T1 sequence: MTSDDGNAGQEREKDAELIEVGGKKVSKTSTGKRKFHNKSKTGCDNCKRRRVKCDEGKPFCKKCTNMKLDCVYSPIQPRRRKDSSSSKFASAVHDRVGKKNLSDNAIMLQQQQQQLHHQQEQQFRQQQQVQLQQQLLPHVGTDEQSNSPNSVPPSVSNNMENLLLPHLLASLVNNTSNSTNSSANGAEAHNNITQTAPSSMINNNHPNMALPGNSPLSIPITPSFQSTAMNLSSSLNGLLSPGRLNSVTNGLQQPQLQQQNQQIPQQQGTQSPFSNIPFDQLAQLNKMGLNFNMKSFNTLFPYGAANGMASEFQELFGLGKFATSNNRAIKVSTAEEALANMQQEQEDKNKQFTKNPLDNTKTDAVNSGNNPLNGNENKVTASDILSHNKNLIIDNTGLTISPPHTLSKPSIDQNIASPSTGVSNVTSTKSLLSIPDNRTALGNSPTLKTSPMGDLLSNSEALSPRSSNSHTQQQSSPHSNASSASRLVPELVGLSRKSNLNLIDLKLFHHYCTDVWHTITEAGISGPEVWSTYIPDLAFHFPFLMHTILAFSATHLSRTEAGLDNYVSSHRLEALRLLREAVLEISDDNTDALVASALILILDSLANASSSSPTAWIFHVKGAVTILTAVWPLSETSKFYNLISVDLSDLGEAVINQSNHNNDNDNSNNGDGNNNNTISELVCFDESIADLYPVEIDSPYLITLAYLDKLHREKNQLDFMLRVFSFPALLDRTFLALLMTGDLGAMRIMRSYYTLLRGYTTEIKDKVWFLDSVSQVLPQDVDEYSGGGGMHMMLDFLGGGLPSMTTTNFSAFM
Assay: PBM E-score (8-mer binding enrichment) (E-score (-0.5 to 0.5)); higher = stronger / more preferred TF binding; most listed sequences are background and not binding sites
Conditions: protein concentration: 200 nM; construct: GST-full length
Procedure, shortened: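 Yeast transcription factors, full-length or as DNA-binding domains, were expressed with a GST tag using PURExpress in vitro transcription/translation. At about 100-200 nM they were applied to universal all-10-mer Agilent arrays, double-stranded by primer extension on fresh or once-stripped slides. Fluorescent anti-GST detected bound protein, and masliner normalised the scans. E-scores for ungapped eight-base words, pooled with reverse complements, came from the Universal PBM Analysis Suite.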

Sequence | PBM E-score
CTAGGAGA | -0.261
CACGTTCG | -0.138
AACCGCGT | 0.175
ATACAAAC | 0.166
GTACTTAA | 0.031
ATAGGCCG | -0.0374
CACAGGTC | -0.214
ATCGACCG | 0.0199
CGAGTTGC | 0.138
GCCTCACA | -0.0448
CGAGAAGA | 0.141
CGAAATCA | 0.262
ATCGCGAA | 0.284
AAGGCGAT | 0.0228
CTGGGCGA | -0.0927
ACAAACGA | 0.445
CCAGCCGG | -0.172
TCAGTGGA | -0.35
TGCACGAA | 0.109
AGTGATAG | -0.126
TCAAAAAA | -0.219
AAGTAACT | -0.113
ACTGTTAT | -0.149
ATCTGCAT | -0.0143
CTCGGCTC | 0.042

Sequence | PBM E-score
CAGAAGTA | -0.283
CATGGGGC | -0.289
GCAGCCAA | -0.295
ATGAGTGA | -0.14
TCAACCCA | -0.077
AGGTAAGC | -0.0248
ATGTGAAG | -0.041
CATCATTC | 0.0369
TGTAGTAA | 0.0843
AATTGAAA | -0.155
GATAATCA | -0.053
CACTGAGG | -0.0758
GCTCTAAC | -0.103
CCAGAATC | -0.00685
ATTCTGAC | -0.00599
CGTGTCGC | 0.265
ACAATTAA | 0.0696
CACCAACC | -0.107
ACAGTCAG | -0.033
CACACTGG | -0.202
CAATCAGA | -0.023
AGAAGCGA | 0.223
AAGATGAG | -0.199
GAGCTAGC | -0.0525
GATAGTGA | 0.137

Sequence | PBM E-score
CCAAGGGG | -0.115
CTCGCTAC | 0.31
AAACCATA | 0.0858
GAGCCATA | -0.0602
CCACGCGA | 0.18
AAGAGCAC | -0.116
AATAACGT | 0.155
CGTTAACA | 0.233
CGGGAGTC | -0.148
ATAACAGG | -0.133
AACACTTA | -0.0131
CATGGATA | -0.0629
GCGAAAAC | 0.107
GCGGCGAA | 0.0736
ATTGTAGA | 0.0824
TAGTAGAA | 0.137
GGGCTTAA | -0.115
AGTTATTC | 0.0906
GGGGTACC | -0.193
CTGGGGAC | -0.338
ACTTGGTA | 0.065
ATACAGTG | 0.0609
CCATACGC | 0.218
AGTGGTTA | 0.0717
AGGGTAGG | -0.351

Sequence | PBM E-score
GTCGTGCA | 0.0222
AAAGACTG | -0.0334
AAGCCTTA | -0.0685
ACGGAGCA | -0.0244
ACTTTACT | -0.241
CCTCCACC | -0.178
CAACTGGC | -0.152
GCTGACCC | -0.254
GAGATCGA | -0.0238
ACGATCAA | 0.263
TGCGCGAA | 0.233
TCCATCGA | -0.0751
AAATCGCG | 0.0694
GGTAGAGA | -0.0671
CAATACCA | 0.00083
TCTACTAA | 0.00879
AACCTCAA | -0.205
CATATGCG | 0.243
GGCTCTTA | 0.0372
CGTATTTC | 0.33
GTCCGGTA | 0.0584
ATTTACCG | 0.182
TCGGAAGA | 0.085
ATGGGGTA | -0.0408
GATTCGAC | -0.00995

Sequence | PBM E-score
ATGGATCC | -0.0619
GGGTTGTA | -0.0732
GTACCAAA | 0.138
CGAGGACG | 0.229
CACTTTTA | -0.0979
CGCCTCAA | -0.1
AATGCGTG | -0.176
AATCCGGA | -0.0546
CGTGTGTA | 0.00761
GTTAGACA | -0.137
GTCGAGTA | 0.107
AACGCGAA | 0.238
ACGCCGCC | -0.148
AGTGAGTA | 0.0432
CGGTGACG | 0.0711
GCGCGCAC | 0.0127
CTCATCTC | -0.0715
ATAACTAT | 0.051
GGCATGAC | -0.121
TACTAATA | 0.0669
AAGGTCTA | 0.0174
ATTGAAGC | -0.128
CCAACACA | 0.0271
TATTTGAA | -0.204
AATCGCAT | 0.154

Sequence | PBM E-score
CTTAGACA | -0.123
ACTCATAC | 0.291
CCAGCGGC | -0.175
CTAGTAGC | 0.0625
GCCCAGAA | -0.157
CCTTAGCG | 0.0184
GCCTTGAC | -0.24
AAAAAGGT | -0.00405
AAGTAACA | -0.125
CCTGCTCA | -0.181
CCGCTGAA | -0.00985
ACTACGAG | 0.335
AGCAATTA | -0.107
GGTGAACA | -0.272
AACTGAGG | 0.0162
AATGACTG | -0.223
ACGCAATC | -0.0574
ACGTTCCA | 0.214
AACTAGGT | 0.0116
CCTGGACG | -0.201
AAATCTCT | -0.0179
GTAACTAC | 0.0869
CGGAGGCA | -0.0509
CGACAGAC | 0.0723
ATTCCGAC | -0.0388

Sequence | PBM E-score
AGGTACAA | -0.191
CGAAGCCA | 0.087
AACCACAA | -0.0332
GCGCCTTA | -0.0457
GACCCCGC | 0.00664
AGTGGACG | 0.0993
ACTATTTG | -0.0828
AACCTGTA | -0.0704
CTTGGCTA | -0.219
CCCAGGAA | -0.176
CCACCCTC | -0.133
ATGCCGAA | 0.0525
ATTCGAAT | -0.0782
GAAGACGA | 0.123
ACGTTGCA | 0.156
AAGAGGTA | -0.0785
GACATCTC | 0.0453
AACGCTTA | -0.00672
CGTTGTAG | 0.0854
TATGCGAA | 0.333
CTTAGGCA | -0.397
ACCGTCAC | -0.235
